Sequences and labels used below:
B1: CPEB3 Ribozyme (parent)
chain: UAACAGGGGGCCACAGCAGAAGCGUUCACGUCGCAGCCCCUGUCAGAUUCUGGUGAAUCUGCGAAUUCUGCUGUAUAUCUC

Read counts are not given, so values of variants with three or more changes are uncertain.

This passage reports self-cleavage results from the RNAGym collection of RNA variant scans (doi:10.1093/nar/gkz1192).

In the series the parent is B1. Nature of the series: self-cleavage, relative activity (ratio to wild type); higher = more cleavage; in vitro, sequencing. A digest of the protocol: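 After error-prone PCR and barcoding, CPEB3 ribozyme mutant libraries were transcribed with T7 RNA polymerase at 37°C for 5 hours, then given 15 min with DNase I before an EDTA stop, and they cleaved during both steps. Reverse transcription with template switching preceded Illumina sequencing. Relative activity divides a variant's cleaved/total read fraction by the unmutated ribozyme's. At least 5 reads were required per variant, and three batches were averaged.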
For U26C C38U G61U A64G U66C U80C, the self-cleavage worked out at 0.28.
Turning to U26C A35G A56G A65U U69C, the self-cleavage is 0.28.
Turning to U26C A75G A77G, the self-cleavage came to 0.13.
With U26C U41A A56G U60C U72A the figure was 0.14.
With U26C A28U A35G G46A A57G G63A the figure was 0.16; with U26C A65G U72C, 0.14; with U26A U31C U51A U54C, 0.4.
In the case of U26C A57U G63A A65G C71A, the self-cleavage was determined as 0.07.
With U26C A35G U41A A56G G63A U69C U78C the figure was 0.08; with U26C G61C A64G A75U, 0.04; with U26A U43A A47G U69A, 0.07.
For the variant U26C U31C C68U U78C, the self-cleavage was found to be 0.3.
With U26A U48C A65C the figure was 0.2; with U26C C29U U48G U66C, 0.09.
With U26C A35G G53C the figure was 1.1.
With U26C U31A U60C, the self-cleavage was determined as 0.11.
Regarding U26C U31A U60A, the self-cleavage is 0.11.
With U26C G30C U67C U69C C79U the figure was 0.08; with U26C A35U U54C A56U G70C, 0.13.
With U26C C27A U41C U60C U72C the figure was 0.06; with U26C A28G C44U U66C U72A, 0.05.
With U26C A28G A45U U69C the figure was 0.12; with U26C G36A G42U, 0.04.
On to U26C A35U C37U A45U U51A, for which the self-cleavage came to 0.06.
Under U26C A28G U80C stands 0.43; under U26C A35G U41A, 0.1.
Regarding U26C A47G U69C, the self-cleavage was determined as 0.17.
As to U26A U54C A56U U72A, the self-cleavage amounted to 0.16.
With U26A U41G U69C the figure was 0.06.
Under U26C C40A U41C A47G A57G A64G stands 0.12; under U26C A45U A56G, 0.17.
Under U26C A35G U74A stands 1.17.
As to U26A U43C U58C U60A U78A, the self-cleavage is 0.45.
With U26C A28G A35U U74A the figure was 0.14; with U26C G30A A47G G70A U80C, 0.07.
Consider U26C U31C A77G U80C, for which the self-cleavage is 0.26.
On to U26C C37U C44U U54C, for which the self-cleavage worked out at 0.08.
Turning to U26A U31A A47G U80A, the self-cleavage was determined as 0.45.
With U26C G33A A45G A56G the figure was 0.1.
In the case of U26A G42A U58C, the self-cleavage stood at 0.09.
Under U26C C32U U78A stands 0.19; under U26C A45G U74C, 0.28.
As for U26C A28G U60C, the self-cleavage was determined as 0.14.
Under U26C C39G C59A stands 0.12; under U26C A35G U76C, 1.17; under U26C C50G A57G U67C, 0.12.
Consider U26A U49A U66C U78C, for which the self-cleavage is 0.1.
Under U26C A35G C50U U67A stands 0.67; under U26C A35G U51C, 1.03; under U26A U31A A45G U48C, 0.08.
U26C A28G A35U: the self-cleavage came out at 0.16.
With U26C A28C U49C U69C the figure was 0.32; with U26C A35G U41C U51C, 0.74; with U26A U31C A35G U48C U74C U78C, 1.16.
With U26A U66C A77U the figure was 0.44; with U26C C37G A47G U51A A56G C62A, 0.1; with U26A U48C A57G U69A, 0.41.
Under U26C A28G U54A stands 0.43.
Turning to U26C C27A C50U A65G U78C, the self-cleavage was 0.03.
Under U26C C44A A47G U66C stands 0.1.
On to U26C A47U U60C, for which the self-cleavage came to 0.14.
With U26C U31C A45G U76C, the self-cleavage is 0.11.
Consider U26C A35G U41A U69A, for which the self-cleavage amounted to 0.1.
Under U26C C37A U43C A64G stands 0.05.
With U26C A56U U60C U72A the figure was 0.11; with U26C C39U U54A A64G, 0.2.
As to U26A U43A U60A U72A, the self-cleavage came to 0.05.
Under U26C A45G U54C U66G stands 0.09; under U26A U51A U74A, 1.33; under U26C A56G U58C U80A, 0.1.
Consider U26C C29U A45U A57G, for which the self-cleavage worked out at 0.08.
With U26C U31A U43C U54A the figure was 0.34.
With U26A U43C U60C the figure was 0.08; with U26C A47G G73A, 1.01.
With U26A U31C U60C U72C the figure was 0.14; with U26C G42A U69C, 0.09; with U26C A35U U74A, 0.18.
As to U26A U51A U72G U76A, the self-cleavage came to 1.24.
With U26C C38U A64G, the self-cleavage is 0.09.
Under U26C A35U A45G A47U A65G U76A stands 0.05; under U26A U67C U72C, 0.24; under U26C A45G U66C, 0.19.
With U26C A28G U54A A56U the figure was 0.31.
As for U26C A57G A64U U66C U80C, the self-cleavage stood at 0.06.
With U26A U41A A47G the figure was 0.54; with U26C A64G U74C, 0.6; with U26A U41C C44U A57G, 0.28.
In the case of U26C A47G U49C C62A U76C, the self-cleavage turned out to be 0.22.
Under U26C A35G U58C U67C U74C stands 0.19.
Under U26C A28G A45G U54C stands 0.4; under U26C A28G A45G U60A, 0.15.
Regarding U26A U58C U80A, the self-cleavage stood at 0.46.
With U26A U69G U76C the figure was 0.4; with U26C A28U G73A, 0.77; with U26A U31C A35U, 0.49.
Take U26A U31C A35G: the self-cleavage is 1.05.
With U26C C37U A45G U67C the figure was 0.1.
Under U26C A56G U67A stands 0.58; under U26C A45G G52C U74C C81U, 0.39; under U26C A57U U60C A75G, 0.04.
With U26C C34U A57G the figure was 0.28.
U26C C37U U54C: the self-cleavage was determined as 0.19.
On to U26C A47G U74A, for which the self-cleavage was 0.79.
Turning to U26C C34A U60C G73A U78G, the self-cleavage was 0.08.
On to U26C G42A U48C, for which the self-cleavage came to 0.25.
With U26C G33A U60C U66G the figure was 0.09.
With U26A G36A A64G the figure was 0.09; with U26C A28G U76A, 0.14; with U26C C32U U69C, 0.61.
With U26C A28U A57G the figure was 0.25; with U26C C29U U76A, 0.31.
As for U26A G36A A47G G70A, the self-cleavage came to 0.11.
Under U26A U51C U60A A64G U66C U69A stands 0.15; under U26C A28U U31C U49C U74A, 0.06; under U26C C62G U80C, 0.22.
With U26C C40U U54A the figure was 0.38.
With U26C A45G A64G the figure was 0.11.
Take U26C C29G U31A U48C: the self-cleavage was found to be 0.19.
With U26C A28U U72A the figure was 0.19; with U26C C29A U51A A65G U67C, 0.15; with U26C A45G C62A, 0.15.
Under U26C C40A U49C A56G U80G stands 0.06; under U26A U41A U69C, 0.13; under U26C C37A U51C A57G, 0.16.
As for U26C A45G G73A, the self-cleavage came out at 0.69.
Regarding U26C C40A A64G, the self-cleavage is 0.52.
With U26C A35U U41C A47G U48A U51C C81G the figure was 0.23.
With U26C A35U A57G the figure was 0.19; with U26C U31A U41C U49C, 0.14.
Under U26A G36A U43C A56G U67C stands 0.1; under U26C G33U A45U U49C C68U, 0.04.
Consider U26C A45G A64U U76A, for which the self-cleavage came out at 0.15.
Under U26C C38U U54A stands 0.11; under U26C A56U C62U, 0.15; under U26C A28G U54C C62G, 0.15.
Take U26A U60A U69A U76C: the self-cleavage came to 0.19.
Under U26A U43A A65G U72C stands 0.08.
Under U26C A35U U66C stands 0.24; under U26C G30U U72A U74C, 0.17; under U26C G36C U41C, 0.25.
With U26A U51A A56G A57G A65G A75G U78C the figure was 0.12; with U26C A28G U43A A65G, 0.14.
On to U26C G36A U51A U67G U76G, for which the self-cleavage was 0.05.
Under U26C U31A A45G stands 0.43; under U26A U43C U54C U69A, 0.09; under U26C A56G A57G U74C, 0.16.
Under U26C G53A U74C stands 0.89; under U26C C32U A35U A47G U51C, 0.05.
Under U26C A47G A64G A75G stands 0.19; under U26A U54C A64U C79G, 0.1; under U26C A64U U66C, 0.12.
Turning to U26C U41A G42A A56G U58C A77G U78A, the self-cleavage worked out at 0.08.
With U26C C39U A45C A56G U72C the figure was 0.16; with U26C G36A G42A C44A U49C A65G, 0.06; with U26C A35G A45G A64G U66C U80C, 0.21.
For U26C A45U A47G U48C, the self-cleavage turned out to be 0.15.
With U26C U31G G46A A56U U78A, the self-cleavage was 0.14.
Consider U26C G30A U51C U72A, for which the self-cleavage was found to be 0.27.
Under U26C A47G A57G U58A G61A U67C stands 0.15.
With U26C U31A G42A A56U U74C the figure was 0.07.
Under U26C G30C U31C A45U U51C A56G U69C stands 0.14; under U26A U41C A57G, 0.54; under U26C G36U A47G, 0.16.
For the variant U26C A28U U54C U72A, the self-cleavage is 0.11.
With U26A U43C A64G the figure was 0.14; with U26A G63A A64C, 0.2.
With U26C A35U A56G the figure was 0.2.
